Assay [1] deals with T1, 3×Flag–NOL9 (human (endogenous in HEK 293FT)) (UniProt Q5SY16).
T1 sequence: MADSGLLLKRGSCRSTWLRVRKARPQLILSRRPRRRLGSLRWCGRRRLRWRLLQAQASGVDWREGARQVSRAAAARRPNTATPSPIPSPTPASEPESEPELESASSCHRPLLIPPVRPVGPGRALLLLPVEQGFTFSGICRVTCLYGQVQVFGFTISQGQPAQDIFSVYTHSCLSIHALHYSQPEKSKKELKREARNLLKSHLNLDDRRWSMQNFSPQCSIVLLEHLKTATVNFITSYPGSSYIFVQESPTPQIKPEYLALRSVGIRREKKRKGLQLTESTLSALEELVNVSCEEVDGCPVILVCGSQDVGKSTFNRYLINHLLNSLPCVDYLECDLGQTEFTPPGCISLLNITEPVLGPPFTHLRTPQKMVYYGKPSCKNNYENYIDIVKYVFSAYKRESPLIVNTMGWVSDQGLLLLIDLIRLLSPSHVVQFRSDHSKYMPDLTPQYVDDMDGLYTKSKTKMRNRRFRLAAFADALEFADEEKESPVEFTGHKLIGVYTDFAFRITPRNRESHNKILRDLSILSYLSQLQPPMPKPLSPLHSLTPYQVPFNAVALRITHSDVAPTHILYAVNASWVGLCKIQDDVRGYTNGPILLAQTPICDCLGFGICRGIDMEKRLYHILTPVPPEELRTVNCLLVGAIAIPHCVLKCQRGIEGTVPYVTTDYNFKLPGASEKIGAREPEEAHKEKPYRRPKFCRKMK
The experiment in a line: co-sedimentation; as a6, but proteins purified from RING1B-2A mutant cells.

Amino acid sequences for entries named in this document (tags omitted). A change or cut given only in a name is not applied to a line headed by its entry.
UniProt Q99496: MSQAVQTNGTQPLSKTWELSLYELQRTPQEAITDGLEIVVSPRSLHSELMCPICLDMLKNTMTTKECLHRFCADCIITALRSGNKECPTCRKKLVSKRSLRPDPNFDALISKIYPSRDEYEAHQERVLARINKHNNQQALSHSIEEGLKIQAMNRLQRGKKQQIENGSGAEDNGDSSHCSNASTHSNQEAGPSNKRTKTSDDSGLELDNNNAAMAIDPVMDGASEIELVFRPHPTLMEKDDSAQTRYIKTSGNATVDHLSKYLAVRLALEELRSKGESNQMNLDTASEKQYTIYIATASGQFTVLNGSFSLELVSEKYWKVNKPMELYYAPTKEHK

Assay [2] has as its target RING1B(Q137A/Q138A) (human (endogenous in HEK 293FT)) (UniProt Q99496). The description is as above.
Assay [3] addresses RING1B (human (endogenous in HEK 293FT)) (UniProt Q99496). The assay can be described thus: co-IP; immunoprecipitation from the DNase I-digested chromatin fraction of HEK 293FT cells (IP buffer 250 mM NaCl, 1% Triton X-100), Dynabeads Protein A/G, immunoblot; Fig. 1f, g with or without 500 U/ml benzonase. Background: Immunoblotting shows a protein as a band on a membrane.
For assay [4] the target is unchanged. The assay can be described thus: co-sedimentation; Flag–NOL9-associated and PHC2–Flag-associated proteins purified from the soluble chromatin fraction of cells with wild-type RING1B, eluted with 3×Flag peptide, 10–30% sucrose gradient, 16 h at 4 °C, fractions immunoblotted.

These are yes or no findings as the source states them, for the method shown. Binding seen in cells or lysates may run through a third protein. Some binding calls cover weakened binding; strength is not graded here. For some of these results: Sequences can lack the tags named with a protein.

Consider “RING1B(Q137A/Q138A) (from UniProt Q99496 1-336)”, for which the binding entry in assay [1] was “no binding”.

B1: WDR18 (protein, UniProt Q9BV38 1-432)
chain: MAAPMEVAVCTDSAAPMWSCIVWELHSGANLLTYRGGQAGPRGLALLNGEYLLAAQLGKNYISAWELQRKDQLQQKIMCPGPVTCLTASPNGLYVLAGVAESIHLWEVSTGNLLVILSRHYQDVSCLQFTGDSSHFISGGKDCLVLVWSLCSVLQADPSRIPAPRHVWSHHALPITDLHCGFGGPLARVATSSLDQTVKLWEVSSGELLLSVLFDVSIMAVTMDLAEHHMFCGGSEGSIFQVDLFTWPGQRERSFHPEQDAGKVFKGHRNQVTCLSVSTDGSVLLSGSHDETVRLWDVQSKQCIRTVALKGPVTNAAILLAPVSMLSSDFRPSLPLPHFNKHLLGAEHGDEPRHGGLTLRLGLHQQGSEPSYLDRTEQLQAVLCSTMEKSVLGGQDQLRVRVTELEDEVRNLRKINRDLFDFSTRFITRPAK
B1: the binding entry is on record as “no binding” in assay [2], “binds” in assay [3] and “binds” in assay [4].

The values are drawn from PMC8986528.
